# Measurements taken from the supplement of paper PMC3334620.
# In all, about 33,000 sequences were measured (“E-score (-0.5 to 0.5)”: median about -0.041, highest 2% from about 0.37 on). The list shows a part of the results.
# Biological target: T1, Ecm22 (UniProt Q05958)
# T1 sequence: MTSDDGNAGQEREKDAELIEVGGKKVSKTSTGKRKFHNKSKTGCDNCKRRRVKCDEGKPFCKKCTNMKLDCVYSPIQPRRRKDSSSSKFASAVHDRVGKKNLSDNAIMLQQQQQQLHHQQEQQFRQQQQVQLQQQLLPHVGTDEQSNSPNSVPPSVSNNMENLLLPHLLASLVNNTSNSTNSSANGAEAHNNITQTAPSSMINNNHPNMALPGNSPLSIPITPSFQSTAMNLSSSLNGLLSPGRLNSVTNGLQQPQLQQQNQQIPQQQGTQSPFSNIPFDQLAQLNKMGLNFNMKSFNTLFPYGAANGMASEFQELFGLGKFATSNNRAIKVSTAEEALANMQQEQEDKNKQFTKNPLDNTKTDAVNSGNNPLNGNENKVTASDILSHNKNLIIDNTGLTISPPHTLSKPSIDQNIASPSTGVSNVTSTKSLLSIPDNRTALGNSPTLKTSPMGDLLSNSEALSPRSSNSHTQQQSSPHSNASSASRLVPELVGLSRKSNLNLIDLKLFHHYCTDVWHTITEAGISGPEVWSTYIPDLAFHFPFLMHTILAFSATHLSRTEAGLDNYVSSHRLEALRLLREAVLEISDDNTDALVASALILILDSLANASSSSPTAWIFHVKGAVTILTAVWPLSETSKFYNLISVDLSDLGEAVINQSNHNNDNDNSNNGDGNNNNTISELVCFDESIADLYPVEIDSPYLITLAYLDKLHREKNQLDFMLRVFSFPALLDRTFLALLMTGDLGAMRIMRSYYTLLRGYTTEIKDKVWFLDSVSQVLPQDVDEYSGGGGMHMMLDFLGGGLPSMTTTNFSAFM
# Experiment: PBM E-score (8-mer binding enrichment) (E-score (-0.5 to 0.5)); higher = stronger / more preferred TF binding; most listed sequences are background and not binding sites
# Details: protein concentration: 200 nM; construct: GST-full length
# How it was run: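 Detection of bound protein used fluorescent anti-GST, with scans normalised by masliner. The proteins were GST-tagged yeast transcription factors applied at about 100-200 nM to universal all-10-mer Agilent arrays made double-stranded by primer extension. Each ungapped eight-base word, pooled with its reverse complement, was scored with an E-score from the Universal PBM Analysis Suite.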
row,Sequence,PBM E-score
1,ATGCAAAG,0.0339
2,ACAATAAT,-0.0625
3,CGACCTCG,0.183
4,ACTGAAGC,-0.0293
5,CACTCCTG,-0.226
6,TCACGAGA,0.0348
7,GCACCAGA,0.0194
8,AGCCGCAA,-0.119
9,CCGCTTTC,-0.0554
10,CTCACGTC,-0.119
11,CGGGACTA,-0.255
12,GAAACGAA,0.414
13,AAAATATG,0.0806
14,GAAGTGAC,-0.00127
15,CCACATGA,-0.246
16,CCCAATTA,-0.136
17,CGAAGGGC,0.0256
18,GCCAATTA,-0.0848
19,ACGTTTAG,0.33
20,ATGCTTCG,0.199
21,CGTGTGTC,0.0878
22,ACAGGATC,-0.228

row,Sequence,PBM E-score
1,CAGGACCG,-0.0291
2,CGGGCTCC,-0.163
3,AAATGATC,0.0271
4,CTACAGGA,-0.23
5,CTTATCAC,0.00894
6,GGATGCGA,0.166
7,AGGAAACT,-0.189
8,ATTCCATC,-0.0116
9,ACCCTATA,-0.0965
10,GGCCTTAC,0.0102
11,AAAGATAA,-0.0948
12,CGGGCGGA,-0.115
13,AATAACCA,-0.161
14,AATACAAC,0.0357
15,GAGGAATC,-0.102
16,CTTACCAC,-0.145
17,ATGATTAC,-0.0653
18,ACATTCAG,-0.184
19,AAATAAAA,0.0223
20,AGCCAGTA,-0.359
21,TAGATATA,0.193
22,GTTGCGAA,0.195

row,Sequence,PBM E-score
1,TCGGGCAA,-0.00674
2,GTCGGTAA,0.209
3,AGACAGCG,-0.155
4,ATATAAAC,0.212
5,CGCACGGC,-0.0936
6,GGGTTTAA,-0.0497
7,AGTCGGCC,-0.0769
8,GACATTAA,-0.0106
9,CATGAGGA,-0.166
10,CCCCACGA,-0.163
11,TCCACGAA,0.119
12,TACAGCTA,-0.105
13,CGACTTGC,-0.0249
14,GTGAGGAA,-0.00439
15,ACAATGAT,-0.0379
16,CGTGAAAC,-0.00739
17,ACGCAAAT,-0.073
18,AAACGAGT,0.456
19,ATGTTGAA,0.0309
20,AGTTTCAA,-0.249
21,CTCAATGC,-0.0421
22,AACGATGC,0.348

row,Sequence,PBM E-score
1,AGCTCCTC,-0.136
2,CCGTGCCC,-0.158
3,ATGGGAAA,-0.258
4,ATAGCTCC,-0.169
5,CAAAAGTC,-0.025
6,CACTCCAA,-0.167
7,GCTATACA,-0.0645
8,GTGTCTTA,0.0249
9,ACCATAGT,-0.101
10,GTAAACAA,0.279
11,CGCCATCC,-0.13
12,GTTCAATA,0.0249
13,CTTTCTTA,-0.00264
14,AAGATCCA,-0.089
15,CTTCCGGA,-0.243
16,GACTCGGC,0.071
17,AGTACGCG,0.197
18,GCGTAATA,0.0727
19,GAATAGTC,0.0353
20,TATCCCCA,-0.243
